Data taken from PubChem BioAssay AID1671189 (National Center for Advancing Translational Sciences (NCATS), 2021).
Among all 1,100 compounds or so, about 70 (6%) were called active. Another 22% or so got no clear call; they are omitted. Calls follow the shape of the dose curve; as a rule, active = well fitted curve in the direction sought with a large enough effect; inconclusive = small, poorly fitted or top-dose-only effect, or another doubt; inactive = no such curve, though single readings can be large or run the other way. Some of the results follow.

target: Polyunsaturated fatty acid lipoxygenase ALOX12 (Homo sapiens) (UniProt P18054); assay: Confirmatory qHTS assay for inhibitors of human arachidonate 12S-lipoxygenase (ALOX12): Round 2; details: purified human 12-LOX, xylenol orange absorbance; series mostly up to 125 µM; activity change, negative = inhibition: at the top concentration
Procedure, shortened: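 Purified human enzyme (150 nM) in 25 mM Hepes, 0.01% Triton X-100, pH 7.0, preincubated 15 min with compound, then 40 uM arachidonic acid for 30 min at room temperature. Hydroperoxide detected by Fe-XO, read as 573/405 nm absorbance ratio.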
% is scaled to controls: 0 for no effect and ±100 for the full control effect.

UniProt P18054, sequence (P18054 whole entry, looked up): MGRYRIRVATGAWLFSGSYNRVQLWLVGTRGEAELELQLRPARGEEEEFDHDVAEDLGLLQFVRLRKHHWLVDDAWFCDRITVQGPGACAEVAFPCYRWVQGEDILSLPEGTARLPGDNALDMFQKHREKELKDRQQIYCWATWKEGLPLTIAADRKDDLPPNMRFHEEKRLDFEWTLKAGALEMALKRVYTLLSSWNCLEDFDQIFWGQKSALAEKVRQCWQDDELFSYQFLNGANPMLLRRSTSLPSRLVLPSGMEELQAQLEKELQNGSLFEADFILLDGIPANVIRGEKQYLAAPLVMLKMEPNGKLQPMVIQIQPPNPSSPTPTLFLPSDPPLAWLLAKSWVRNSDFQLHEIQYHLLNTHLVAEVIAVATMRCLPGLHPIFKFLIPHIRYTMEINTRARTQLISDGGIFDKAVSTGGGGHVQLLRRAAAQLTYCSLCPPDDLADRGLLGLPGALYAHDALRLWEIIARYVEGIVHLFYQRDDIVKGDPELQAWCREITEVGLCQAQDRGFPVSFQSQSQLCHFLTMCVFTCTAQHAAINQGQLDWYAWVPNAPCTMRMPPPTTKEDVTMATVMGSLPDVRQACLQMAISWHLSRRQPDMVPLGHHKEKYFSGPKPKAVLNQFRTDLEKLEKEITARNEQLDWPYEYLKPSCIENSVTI

Activity change, negative = inhibition, inactive:
CN1CC(=O)N(C2CCCNCC2)Cc2c1ncnc2N1CCN(Cc2ccccc2)CC1 (stereo not given) -10.1%
O=C1NCc2ccccc2CC12CCN(Cc1cc(O)cc(O)c1)C2 (stereo not given) -15%
COc1ccc(CNc2ncnc3c2CN(C2CCCNCC2)C(=O)CN3C)cc1 (stereo not given) -4.88%
CC(=O)NCC1(COc2cnccn2)C[C@@H](O)[C@@H](O)C1 (stereo not given in full) -1.32%
CN1C(=O)[C@@H]2C[C@@H](CN2C2CCCC2)Oc2ccccc21 14.6%
NCc1cccc(-c2cncnc2)c1 -4.13%
O=C(NC1CCCCC1)N[C@H]1CCN2C(=O)c3ccccc3NC(=O)[C@H]12 -0.661% [at 64.5 µM]
CCC(=O)N1Cc2ccccc2CC2(CCCCN2CC2CCNC2)C1 (stereo not given) -4.6%
CC(=O)N1CCCC2(CC(c3ccccn3)=NO2)C1 (stereo not given) -12% [at 233 µM]
CN(c1ccccc1)c1ccc2nnc(-c3cc(C(=O)NCc4cccnc4)ccn3)n2n1 4.47% [at 64.5 µM]
O=C(Nc1ccccc1)O[C@@H]1CO[C@H]2[C@@H]1OC[C@@H]2n1nnnc1SCc1ccco1 -10.7% [at 64.5 µM]
CCCCCNc1ncnc2c1CN(C1CCNCC1)C(=O)CN2C -9.78%
COc1ccnc(N2CCN(CC3(O)CNCCOC3)CC2)n1 (stereo not given) -16.3% [at 64.5 µM]
O=C(OCc1ccc(CSc2nnc(-c3cccc4ccccc34)o2)cc1)c1ccc(F)cc1 7.62% [at 64.5 µM]
O=C1NCc2ccccc2CC12CCN(Cc1ccccc1F)C2 (stereo not given) -20.1%
CC1CCCN1c1ncnc2c1CN(C1CCCNCC1)C(=O)CN2C (stereo not given) -18.8%
CCOc1ccc(-c2cccc3c2CCNC3)cc1C(N)=O 10.1% [at 64.5 µM]
Cc1ccc(CC(=O)N2CCN(c3cc(C(F)(F)F)ncn3)CC2)cc1 -12% [at 64.5 µM]
O=C(C1CCCC1)N1Cc2ccccc2CC2(CCN(Cc3cccnc3)C2)C1 (stereo not given) -28.9%
NCC(=O)N1CCC2(CC1)CN(C(=O)c1ccc(Cl)cc1)CCO2 5.55%
O=C(NC1CC1)c1cc(C2CC2)nc2onc(C3CCNCC3)c12 -20.1%
COCCNc1ncnc2c1CN(C1CCNCC1)C(=O)CN2C -20.2%
CNC(=O)c1cn2c(n1)CN(C(=O)OC)CC2 -9% [at 233 µM]
CNC(C)c1cccc(OC)c1 (stereo not given) -2.95% [at 233 µM]
CN1CC(=O)N(C2CNC2)Cc2c(NC3CC3)ncnc21 5.35%
CCn1ccc(C(=O)NC2CCCN(c3cc(-c4ccc(Cl)cc4)[nH]n3)C2)n1 (stereo not given) -7.64% [at 64.5 µM]
C[S+](=O)([O-])N1Cc2ccccc2CC2(CCN(CC3CCNC3)CC2)C1 (stereo not given) -9.86%
FC(F)(F)c1ccc(CN2CCCC3(CC(c4cccc(C(F)(F)F)c4)=NO3)C2)cc1 (stereo not given) -22.5%
COCCCNC(=O)c1cc(C2CC2)nc2c1c(C1CCCN1)nn2-c1ccccc1 (stereo not given) -7.44%
CCN(CC)[C@H]1[C@@H]2OC[C@@H](O2)[C@@H](NCc2ccc(N(C)C)cc2)[C@@H]1O -0.5% [at 64.5 µM]
